Results as given in US20180305437A1 (Affibody, published 2018).
Substitutions are numbered along the chain they refer to.

T1: human PD-L2 Fc Chimera (R&D Systems, cat. no. 1224-PL-100) (human, UniProt Q9BQ51 20-219)
T1 construct: Bought; biotinylated in ELISA, amine-coupled in Biacore; also called hPD-L2; not shown: Fc part of the bought Fc chimera; not described
T1 sequence (looked up): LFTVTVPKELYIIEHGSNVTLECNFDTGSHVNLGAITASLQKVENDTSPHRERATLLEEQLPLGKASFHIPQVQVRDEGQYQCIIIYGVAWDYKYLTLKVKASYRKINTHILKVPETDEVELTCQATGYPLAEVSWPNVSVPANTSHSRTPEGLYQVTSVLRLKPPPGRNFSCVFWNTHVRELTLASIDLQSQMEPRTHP

T2: human B7-H3 Fc Chimera (R&D Systems, cat. no. 1027-B3-100) (human, UniProt Q5ZPR3-2 29-245)
T2 construct: Bought; biotinylated in ELISA, amine-coupled in Biacore; also called hB7-H3; not shown: Fc part of the bought Fc chimera; not described
T2 sequence (looked up): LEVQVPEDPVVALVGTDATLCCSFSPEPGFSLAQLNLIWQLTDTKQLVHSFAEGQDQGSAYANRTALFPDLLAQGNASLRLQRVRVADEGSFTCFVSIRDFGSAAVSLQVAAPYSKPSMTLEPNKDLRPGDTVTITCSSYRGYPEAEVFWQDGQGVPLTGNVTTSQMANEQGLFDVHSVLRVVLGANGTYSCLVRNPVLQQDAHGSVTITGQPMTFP

T3: human B7-H4 (R&D Systems, cat. no. 6576-B7-50) (human, UniProt Q7Z7D3 29-258)
T3 construct: Bought; biotinylated in ELISA, amine-coupled in Biacore; also called hB7-H4
T3 sequence (looked up): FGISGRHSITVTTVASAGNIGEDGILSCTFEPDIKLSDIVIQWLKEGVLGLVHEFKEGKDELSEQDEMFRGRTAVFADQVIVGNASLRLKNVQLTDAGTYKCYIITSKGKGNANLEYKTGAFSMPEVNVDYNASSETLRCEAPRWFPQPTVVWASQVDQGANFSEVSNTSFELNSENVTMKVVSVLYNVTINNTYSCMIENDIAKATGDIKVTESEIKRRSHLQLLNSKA

B1: Z13166 (SEQ ID NO:1) as fusion to ABD, periplasmic extract (designed binder)
chain: AQHDEALEVDAKYAKERTVAVWEIVQLPNLTAWQKGAFINKLHDDPSQSSELLSEAKKLNDSQAPKVDYVLAEAKVLANRELDKYGVSDYYKNLINNAKTVEGVKALIDEILAALPYVPG
notes: domain: ABD, GA3 of protein G
B2: Z13178 (SEQ ID NO:2) as fusion to ABD, periplasmic extract (designed binder)
chain: B1 chain with V19W, V25M, Q26D, W33G, K35R
notes: domain: ABD, GA3 of protein G
B3: Z13359 (SEQ ID NO:3) as fusion to ABD, periplasmic extract (designed binder)
chain: B1 chain with V19I, V25M, Q26D, A32S, K35R, N40D
notes: domain: ABD, GA3 of protein G
B4: Z13398 (SEQ ID NO:4) as fusion to ABD, periplasmic extract (designed binder)
chain: B1 chain with V19M, V21T, W33R, N40W
notes: domain: ABD, GA3 of protein G
B5: His6-tagged Z variant Z13166 (SEQ ID NO:1) (designed binder)
chain: MGSSHHHHHHLQVDAKYAKERTVAVWEIVQLPNLTAWQKGAFINKLHDDPSQSSELLSEAKKLNDSQAPKVD
notes: Monomeric; also called His-tagged Z13166
B6: His6-tagged Z variant Z13178 (SEQ ID NO:2) (designed binder)
chain: B5 chain with V23W, V29M, Q30D, W37G, K39R
notes: Monomeric; also called His-tagged Z13178
B7: His6-tagged Z variant Z13359 (SEQ ID NO:3) (designed binder)
chain: B5 chain with V23I, V29M, Q30D, A36S, K39R, N44D
notes: Monomeric; also called His-tagged Z13359
B8: His6-tagged Z variant Z13398 (SEQ ID NO:4) (designed binder)
chain: B5 chain with V23M, V25T, W37R, N44W
notes: Monomeric; also called His-tagged Z13398

Assays:
[1] = target: T4, human PD-L1 Fc Chimera (R&D Systems, cat. no. 156-B7-100) (human, UniProt Q9NZQ7 19-239); experiment: ELISA titration, Z-ABD captured by anti-ABD antibody, dilution series of biotinylated hPD-L1
T4 construct: Biotinylated (Sulfo-NHS-LC-Biotin) in ELISA and AlphaLISA; amine-coupled to a CM5 chip in Biacore; also called hPD-L1; B7-H1; not shown: Fc part (and any linker) of the bought Fc chimera; not described
Protocol: (§1) Half-area 96-well ELISA plates (Costar, cat. no. 3690) were coated at 4° C. overnight with 2 μg/ml of an anti-ABD goat antibody (produced in-house) diluted in coating buffer (50 mM sodium carbonate, pH 9.6; Sigma, cat. no. C3041). The antibody solution was poured off and the wells were washed in water and blocked with 100 μl of PBSC (PBS supplemented with 0.5% casein; Sigma, cat. no. C8654) for 1 to 3 h at RT. The blocking solution was discarded and 50 μl periplasmic solutions, diluted 1:1 with PBST 0.05%, were added to the wells and incubated for 1.5 to 2.5 h at RT under slow agitation. As a blank control, PBST 0.05% was added instead of a periplasmic sample. The supernatants were poured off and the wells were washed 4 times with PBST 0.05%. […] Streptavidin conjugated HRP (Thermo Scientific, cat. no. N100) diluted 1:30,000 in PBSC, was added to the wells and the plates were incubated for approximately 1 h. After washing as described above, 50 μl ImmunoPure TMB substrate (Thermo Scientific, cat. no. 34021) was added to the wells and the plates were treated according to the manufacturer's recommendations.
(§2) As a background control, all Z variants were also assayed with no target protein added. […] Periplasm containing the ABD moiety only was used as a negative control.

[2] = target: T1, human PD-L2 Fc Chimera (R&D Systems, …); experiment: ELISA: Z variant-ABD fusion captured on anti-ABD antibody, biotinylated control protein added at 8 nM
Protocol: as §1, §2

[3] = target: T2, human B7-H3 Fc Chimera (R&D Systems, …); experiment: as above
Protocol: as §1, §2

[4] = target: T3, human B7-H4 (R&D Systems, cat. no. …); experiment: as above
Protocol: as §1, §2

[5] = target: T5, mouse PD-L1 Fc Chimera (R&D Systems, cat. no. 1019-B7) (mouse, UniProt Q9EP73 19-238); experiment: SPR (Biacore 2000), mPD-L1 immobilized on CM5, Z variant injected
T5 construct: Bought; amine-coupled to a CM5 chip; also called mPD-L1; not shown: Fc part of the bought Fc chimera; not described
Protocol: (§3) One flow cell surface on each chip was activated and deactivated for use as blank during analyte injections. In the kinetic experiment, HBS-EP was used as running buffer and the flow rate was 50 μl/min. The analytes, i.e. the Z variants, were each diluted in HBS-EP buffer within a concentration range of 1000 to 0.01 nM and injected for 5 min, followed by dissociation in running buffer for 15-25 min. After dissociation, the surfaces were regenerated with one or two injections of 0.1% SDS. Kinetic constants were calculated from the sensorgrams using the Langmuir 1:1 model of BiaEvaluation software 4.1 (GE Healthcare).

[6] = target: T1, human PD-L2 Fc Chimera (R&D Systems, …); experiment: SPR (Biacore 2000), target immobilized on CM5, Z variant injected
Protocol: as §3

[7] = target: T2, human B7-H3 Fc Chimera (R&D Systems, …); experiment: as above
Protocol: as §3

[8] = target: T3, human B7-H4 (R&D Systems, cat. no. …); experiment: as above
Protocol: as §3

[9] = target: T4, human PD-L1 Fc Chimera (R&D Systems, …); experiment: SPR (Biacore 2000), hPD-L1 immobilized on CM5, 1:1 model, approximate (5 and 50 nM)
Protocol: as §3

[10] = target: T4, human PD-L1 Fc Chimera (R&D Systems, …); experiment: AlphaLISA blocking assay, 10 nM biotinylated hPD-L1, competitor hPD-1 on Acceptor beads
Protocol: (§4) Finally, streptavidin coated Donor beads (Perkin Elmer, cat. no. 6772002) were added to a final concentration of 40 μg/ml and incubated for 30 min. All incubations were performed at RT in the dark. The plate was analyzed in the EnSpire instrument and the IC50 values were calculated using GraphPad Prism 5.

[11] = target: T6, rhesus PD-L1/Fc Chimera (Sino Biological Inc., cat. no. 90251-C02H) (rhesus monkey, UniProt F6PJN1 19-239); experiment: SPR (Biacore 2000), RhPD-L1 immobilized on CM5, approximate (one concentration, 5 nM)
T6 construct: Bought; amine-coupled to a CM5 chip; also called RhPD-L1; rhesus monkey PD-L1; not shown: Fc part of the bought Fc chimera; not described
Protocol: as §3

[12] = target: T4, human PD-L1 Fc Chimera (R&D Systems, …); experiment: AlphaLISA blocking assay, 8 nM biotinylated hPD-L1, competitor hPD-1 on Acceptor beads
Protocol: as §4

T6 sequence (F6PJN1 entry or part of it C02H C02H): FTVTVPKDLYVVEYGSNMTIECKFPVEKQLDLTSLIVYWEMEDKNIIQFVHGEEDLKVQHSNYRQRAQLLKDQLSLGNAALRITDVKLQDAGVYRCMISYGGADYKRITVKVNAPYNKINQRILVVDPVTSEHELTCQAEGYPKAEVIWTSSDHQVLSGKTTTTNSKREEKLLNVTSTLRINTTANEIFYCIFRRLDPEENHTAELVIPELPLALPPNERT
T4 sequence (Q9NZQ7 19-239 limits assumed, change not shown): as the sequence (F6PJN1 entry or part of it C02H C02H) above, with T33A, S34A, N62S, Q68R, R82Q, L173F, A185T, I192T, L215H counted along it
T5 sequence (Q9EP73 19-238, change not shown): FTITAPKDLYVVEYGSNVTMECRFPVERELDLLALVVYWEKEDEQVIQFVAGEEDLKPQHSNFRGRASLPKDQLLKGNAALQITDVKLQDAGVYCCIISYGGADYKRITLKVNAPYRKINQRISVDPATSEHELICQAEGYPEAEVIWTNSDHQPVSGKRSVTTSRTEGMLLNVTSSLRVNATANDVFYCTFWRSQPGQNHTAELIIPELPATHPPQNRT

Row | Binder | EC50 [1] [nM] | binding result [2] | binding result [3] | binding result [4] | binding result [5] | binding result [6] | binding result [7] | binding result [8] | Kd [9] [nM] | koff [9] [s⁻¹] | kon [9] [M⁻¹ s⁻¹] | IC50 [10] [nM] | Kd [11] [nM] | koff [11] [s⁻¹] | kon [11] [M⁻¹ s⁻¹] | IC50 [12] [nM]
1 | B1 | 0.19 | no binding (tested: 8 nM) | no binding (tested: 8 nM) | no binding (tested: 8 nM) | – | – | – | – | – | – | – | – | – | – | – | –
2 | B2 | 0.26 | – | – | – | – | – | – | – | – | – | – | – | – | – | – | –
3 | B3 | 0.3 | no binding (tested: 8 nM) | no binding (tested: 8 nM) | no binding (tested: 8 nM) | – | – | – | – | – | – | – | – | – | – | – | –
4 | B4 | 0.15 | no binding (tested: 8 nM) | no binding (tested: 8 nM) | no binding (tested: 8 nM) | – | – | – | – | – | – | – | – | – | – | – | –
5 | B5 | – | – | – | – | no binding (tested: concentration range of 1000 to 0.01 nM) | no binding (tested: concentration range of 1000 to 0.01 nM) | no binding (tested: concentration range of 1000 to 0.01 nM) | no binding (tested: concentration range of 1000 to 0.01 nM) | 0.4 | 0.0026 | 7.4e+06 | 6.2 | – | – | – | –
6 | B6 | – | – | – | – | – | no binding (tested: 500 nM) | no binding (tested: 500 nM) | no binding (tested: 500 nM) | ≤ 540 | ≤ 1e-05 | – | – | 22 | 0.0025 | 110000 | ~10
7 | B7 | – | – | – | – | – | no binding (tested: 500 nM) | no binding (tested: 500 nM) | no binding (tested: 500 nM) | 15 | 0.028 | 1.9e+06 | – | 20 | 0.0097 | 490000 | 1.8
8 | B8 | – | – | – | – | no binding (tested: concentration range of 1000 to 0.01 nM) | no binding (tested: concentration range of 1000 to 0.01 nM) | no binding (tested: concentration range of 1000 to 0.01 nM) | no binding (tested: concentration range of 1000 to 0.01 nM) | 0.73 | 0.0037 | 5.1e+06 | 4.9 | – | – | – | –
